In assay [1] the test system is Lyngbya sp. PCC 8106 peroxidase LspPOX, mature protein amino acids 117-661 of SEQ ID NO: 12 (His6-tag). The note with it: ABTS 0.025-10 mM, phosphate pH 6.0, 25° C.
The test system is the same in assay [2]. Particulars: ABTS 0.025-10 mM.
The test system is the same in assay [3]. The note with it: ABTS 0.025-5 mM.
Assay [4] deals with Hydrocoleum sp. heme peroxidase HydPOX fragment HydPOXs (amino acids 117 to 659 of SEQ ID NO: 1, without proregion), SEQ ID NO: 18 / 26 (His6-tag). Particulars: ABTS 0.025-5 mM.
The test system is the same in assay [5].
Assay [6] concerns the target T1, Okeania hirsuta heme peroxidase OkePOX fragment OkePOXs (amino acids 117 to 659 of SEQ ID NO: 11, without proregion), SEQ ID NO: 25 / 27 (His6-tag) (Okeania hirsuta, UniProt A0A3N6PIS3).
T1 sequence (A0A3N6PIS3 117-659): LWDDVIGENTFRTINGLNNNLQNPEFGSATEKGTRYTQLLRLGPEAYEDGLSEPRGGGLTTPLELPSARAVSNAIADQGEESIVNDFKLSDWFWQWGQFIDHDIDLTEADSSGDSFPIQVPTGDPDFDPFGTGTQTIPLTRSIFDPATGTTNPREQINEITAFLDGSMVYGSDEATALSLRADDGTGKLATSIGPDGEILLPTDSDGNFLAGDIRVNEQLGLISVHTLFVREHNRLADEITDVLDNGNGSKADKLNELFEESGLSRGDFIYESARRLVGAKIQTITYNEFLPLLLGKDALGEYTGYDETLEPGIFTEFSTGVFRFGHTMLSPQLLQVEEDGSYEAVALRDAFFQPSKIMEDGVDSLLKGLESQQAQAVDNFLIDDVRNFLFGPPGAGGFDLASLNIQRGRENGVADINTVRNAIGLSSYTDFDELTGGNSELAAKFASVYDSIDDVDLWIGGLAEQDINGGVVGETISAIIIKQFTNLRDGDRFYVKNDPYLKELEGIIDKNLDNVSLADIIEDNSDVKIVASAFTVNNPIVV

In assay [7] the test system is Lyngbya sp. PCC 8106 peroxidase LspPOX, mature protein amino acids 117-661 of SEQ ID NO: 12 (His6-tag).
The mark [8] stands for this setting: 100 μM H2O2, 6.45 nM peroxidase, sodium acetate pH 5.0, 25° C.
Setting [9] is: 100 μM H2O2, sodium acetate pH 5.0, 25° C.
The mark [10] stands for this setting: KI 0.03-4 mM, 0.1 mM H2O2, 100 μM thymol blue, phosphate pH 7.2, room temperature, sigmoidal fit.
The mark [11] stands for this setting: KI 0.03-4 mM, 0.1 mM H2O2, phosphate pH 7.2, room temperature.

Here are results for two compounds from patent US20250332227A1, “PEROXIDASE BASED BIOCONTROL AGENTS” (ACIES BIO D.O.O., priority 2022, published 2025).

Like-named read-outs stand apart in the source and are kept apart here.

A word on the Vmax: it is the top rate of the reaction or transport when substrate is in excess. One may read the kcat as the maximal rate divided by the concentration of active sites. As a reminder, the Km is the substrate concentration at which the rate is half of its maximum. Regarding `CCn1c(=NN=c2sc3cc(S(=O)(=O)O)ccc3n2CC)sc2cc(S(=O)(=O)O)ccc21` [ABTS, 2,2′-azino-bis (3-ethylbenzothiazoline-6-sulfonic acid)], the Vmax in assay [1] (10 nM peroxidase) worked out at 0.0149 nmol/s; in assay [2] (100 μM H2O2, 10 nM peroxidase, phosphate pH 6.0, 25° C.), 0.00076 µmol/min; in assay [3] (setting [8]), 0.004 µmol/min; in assay [4] (setting [8]) it was 0.0073 µmol/min. The kcat was found to be 7.45 s⁻¹ in assay [1]; 6.3 s⁻¹ in assay [2] (100 μM H2O2, phosphate pH 6.0, 25° C.); 57 s⁻¹ in assay [3] (setting [9]); 95 s⁻¹ in assay [4] (setting [9]). The Km in assay [4] (setting [9]) stood at 560 µM.

For `[I-].[K+]` [iodide], the Vmax in assay [5] (setting [10]) is 0.0021 µmol/min; in assay [6] (setting [10]), 0.0027 µmol/min; in assay [7] (setting [10]) it was 0.0029 µmol/min. The kcat in assay [5] (setting [11]) came out at 10.6 s⁻¹; in assay [6] (setting [11]), 13.7 s⁻¹; in assay [7] (setting [11]), 14.7 s⁻¹. Further, the kcat/K0.5 in assay [5] (KI, 0.1 mM H2O2, pH 7.2) is 85100 M⁻¹ s⁻¹; in assay [6] (KI, 0.1 mM H2O2, pH 7.2) it was 118600 M⁻¹ s⁻¹; in assay [7] (KI, 0.1 mM H2O2, pH 7.2), 10600 M⁻¹ s⁻¹.
